Laboratory results published in the supplement of paper PMC4604168 (melanoma cell lines).
The list shows a part of the results. Single values are uncertain, as repeats are few or missing.

Legend:
Test in all cases: cell count relative to DMSO control; melanoma cells; higher = more viable cells
Conditions in all cases: library dose: standard library concentration; 72 h
[1] = system: A101D
[2] = system: A2058
[3] = system: A375
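Also: cells treated in 1,536-well plates, then fixed and DAPI-stained, with nuclei counted from automated high-throughput microscope images.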

Row | SMILES | cell count [1] [%] | cell count [2] [%] | cell count [3] [%]
1 | Cn1c(=O)n(-c2ccc(C(C)(C)C#N)cc2)c2c3cc(-c4cnc5ccccc5c4)ccc3ncc21 + Nc1ncn([C@H]2C[C@H](O)[C@@H](CO)O2)c(=O)n1 [decitabine] (first compound 0.02 µM, partner dose 0.5 µM) | 68.4 | 45.7 | 87.4
2 | Cc1cc(Nc2cc(N3CCN(C)CC3)nc(/C=C/c3ccccc3)n2)n[nH]1 + CC(C)C[C@H](NC(=O)[C@H](Cc1ccccc1)NC(=O)c1cnccn1)B(O)O [Bortezomib] (first compound 0.2 µM, partner dose 0.005 µM) | 15.4 | 12.3 | 80
3 | Cc1cn(-c2cc(NC(=O)c3ccc(C)c(Nc4nccc(-c5cccnc5)n4)c3)cc(C(F)(F)F)c2)cn1 [nilotinib] + C[C@]1(c2nc3c(C(N)=O)cccc3[nH]2)CCCN1 [Veliparib] (first compound 1 µM, partner dose 7 µM) | 96.3 | 79 | 88.3
4 | Cc1cc(Nc2cc(N3CCN(C)CC3)nc(/C=C/c3ccccc3)n2)n[nH]1 + CS(=O)(=O)CCNCc1ccc(-c2ccc3ncnc(Nc4ccc(OCc5cccc(F)c5)c(Cl)c4)c3c2)o1 [lapatinib] (first compound 0.2 µM, partner dose 4 µM) | 61.6 | 79.9 | 144
5 | Cn1c(=O)n(-c2ccc(C(C)(C)C#N)cc2)c2c3cc(-c4cnc5ccccc5c4)ccc3ncc21 + C#Cc1cccc(Nc2ncnc3cc(OCCOC)c(OCCOC)cc23)c1 [erlotinib] (first compound 0.02 µM, partner dose 4 µM) | 75 | 47.6 | 93.2
6 | COc1ccc(C2=N[C@@H](c3ccc(Cl)cc3)[C@@H](c3ccc(Cl)cc3)N2C(=O)N2CCNC(=O)C2)c(OC(C)C)c1 [Nutlin-3] + Cn1nnc2c(C(N)=O)ncn2c1=O [temozolomide] (first compound 0.5 µM, partner dose 10 µM) | 64 | 30.8 | 69.8
7 | CC(C)C[C@H](NC(=O)[C@H](Cc1ccccc1)NC(=O)c1cnccn1)B(O)O [Bortezomib] + CCN(CC)CCCCNc1ncc2cc(-c3cc(OC)cc(OC)c3)c(NC(=O)NC(C)(C)C)nc2n1 [PD173074] (first compound 0.005 µM, partner dose 0.5 µM) | 11.1 | 23.9 | 89.8
8 | Cc1cn(-c2cc(NC(=O)c3ccc(C)c(Nc4nccc(-c5cccnc5)n4)c3)cc(C(F)(F)F)c2)cn1 [nilotinib] + O=C(Nc1cccc(Cl)c1)Nc1ncc(CCNc2ncnc3ccsc23)s1 [SNS314] (first compound 1 µM, partner dose 0.004 µM) | 71.1 | 73.8 | 118
9 | Cc1cn(-c2cc(NC(=O)c3ccc(C)c(Nc4nccc(-c5cccnc5)n4)c3)cc(C(F)(F)F)c2)cn1 [nilotinib] + CCN(CC)CCNC(=O)c1c(C)[nH]c(/C=C2\C(=O)Nc3ccc(F)cc32)c1C [sunitinib] (first compound 1 µM, partner dose 2 µM) | 65.6 | 81 | 109
10 | Cc1cc(Nc2cc(N3CCN(C)CC3)nc(/C=C/c3ccccc3)n2)n[nH]1 + OCc1c[nH]c2ccccc12 [Indole-3-carbinol] (first compound 0.2 µM, partner dose 4 µM) | 107 | 90.2 | 93.7
11 | Cc1cc(Nc2cc(N3CCN(C)CC3)nc(/C=C/c3ccccc3)n2)n[nH]1 + CN(NC(=O)CC(=O)NN(C)C(=S)c1ccccc1)C(=S)c1ccccc1 [STA4783] (first compound 0.2 µM, partner dose 0.03 µM) | 65.2 | 10.5 | 95.1
12 | Cc1cc(Nc2cc(N3CCN(C)CC3)nc(/C=C/c3ccccc3)n2)n[nH]1 + CO[C@@H]1[C@H](N(C)C(=O)c2ccccc2)C[C@H]2O[C@]1(C)n1c3ccccc3c3c4c(c5c6ccccc6n2c5c31)C(=O)NC4 [Midostaurin] (first compound 0.2 µM, partner dose 0.4 µM) | 66.8 | 54.5 | 88
13 | Cn1c(=O)n(-c2ccc(C(C)(C)C#N)cc2)c2c3cc(-c4cnc5ccccc5c4)ccc3ncc21 + OCCn1cc(-c2cnc3nnn(Cc4ccc5ncccc5c4)c3n2)cn1 [PF04217903] (first compound 0.02 µM, partner dose 5 µM) | 74.2 | 65.8 | 95.2
14 | COc1ccc(C2=N[C@@H](c3ccc(Cl)cc3)[C@@H](c3ccc(Cl)cc3)N2C(=O)N2CCNC(=O)C2)c(OC(C)C)c1 [Nutlin-3] + O=C(O)c1ccc(-c2c[nH]c3ncc(-c4ccccc4)cc23)cc1C1CCCC1 [GSK650394] (first compound 0.5 µM, partner dose 0.8 µM) | 56.1 | 89.6 | 75.8
15 | Cn1c(=O)n(-c2ccc(C(C)(C)C#N)cc2)c2c3cc(-c4cnc5ccccc5c4)ccc3ncc21 + O=C(O)[C@@H]1[O][Sb](=[O])([O][Sb]2(=[O])[O][C@H]([C@H](O)CO)[C@H](O)[C@H](C(=O)O)[O]2)[O][C@H]([C@H](O)CO)[C@@H]1O [stibogluconate] (first compound 0.02 µM, partner dose 10 µM) | 81.4 | 67.4 | 87.8
16 | Cc1cc(Nc2cc(N3CCN(C)CC3)nc(/C=C/c3ccccc3)n2)n[nH]1 + Nc1nc(F)nc2c1ncn2[C@@H]1O[C@H](CO)[C@@H](O)[C@@H]1O [fludarabine] (first compound 0.2 µM, partner dose 1 µM) | 68 | 78.2 | 29.2
17 | COc1ccc(C2=N[C@@H](c3ccc(Cl)cc3)[C@@H](c3ccc(Cl)cc3)N2C(=O)N2CCNC(=O)C2)c(OC(C)C)c1 [Nutlin-3] + CN(c1ncccc1CNc1nc(Nc2ccc3c(c2)CC(=O)N3)ncc1C(F)(F)F)S(C)(=O)=O [PF562271] (first compound 0.5 µM, partner dose 0.4 µM) | 58.7 | 74.6 | 65.1
18 | Cc1cn(-c2cc(NC(=O)c3ccc(C)c(Nc4nccc(-c5cccnc5)n4)c3)cc(C(F)(F)F)c2)cn1 [nilotinib] + CN(NC(=O)CC(=O)NN(C)C(=S)c1ccccc1)C(=S)c1ccccc1 [STA4783] (first compound 1 µM, partner dose 0.03 µM) | 68.4 |  | 143
19 | CC(C)C[C@H](NC(=O)[C@H](Cc1ccccc1)NC(=O)c1cnccn1)B(O)O [Bortezomib] + C=CCNC1=C2C[C@@H](C)C[C@H](OC)[C@H](O)[C@@H](C)/C=C(\C)[C@H](OC(N)=O)[C@@H](OC)/C=C\C=C(/C)C(=O)NC(=CC1=O)C2=O [Tanespimycin] (first compound 0.005 µM, partner dose 0.01 µM) | 24.7 | 12.9 | 98.6
20 | COc1ccc(C2=N[C@@H](c3ccc(Cl)cc3)[C@@H](c3ccc(Cl)cc3)N2C(=O)N2CCNC(=O)C2)c(OC(C)C)c1 [Nutlin-3] + Cc1cc(N2CCOCC2)cc2[nH]c(-c3c(NC[C@@H](O)c4cccc(Cl)c4)cc[nH]c3=O)nc12 [BMS536924] (first compound 0.5 µM, partner dose 1 µM) | 84.6 | 94.6 | 80.3
21 | COc1ccc(C2=N[C@@H](c3ccc(Cl)cc3)[C@@H](c3ccc(Cl)cc3)N2C(=O)N2CCNC(=O)C2)c(OC(C)C)c1 [Nutlin-3] + CCCS(=O)(=O)Nc1ccc(F)c(C(=O)c2c[nH]c3ncc(Cl)cc23)c1F [PLX4720] (first compound 0.5 µM, partner dose 0.4 µM) | 72.8 | 124 | 99
22 | Cc1cn(-c2cc(NC(=O)c3ccc(C)c(Nc4nccc(-c5cccnc5)n4)c3)cc(C(F)(F)F)c2)cn1 [nilotinib] + CN(C)S(=O)(=O)c1ccc2c(c1)/C(=C/c1cc3c([nH]1)CCCC3)C(=O)N2 [SU6656] (first compound 1 µM, partner dose 2 µM) | 81.3 | 79.9 | 124
23 | Cc1cn(-c2cc(NC(=O)c3ccc(C)c(Nc4nccc(-c5cccnc5)n4)c3)cc(C(F)(F)F)c2)cn1 [nilotinib] + Clc1ccc(Nc2nnc(Cc3ccncc3)c3ccccc23)cc1 [vatalanib] (first compound 1 µM, partner dose 10 µM) | 83.1 | 80.5 | 103
24 | CC(C)C[C@H](NC(=O)[C@H](Cc1ccccc1)NC(=O)c1cnccn1)B(O)O [Bortezomib] + CCCS(=O)(=O)Nc1ccc(F)c(C(=O)c2c[nH]c3ncc(Cl)cc23)c1F [PLX4720] (first compound 0.005 µM, partner dose 0.4 µM) | 14.3 | 17.9 | 97.6
25 | Cn1c(=O)n(-c2ccc(C(C)(C)C#N)cc2)c2c3cc(-c4cnc5ccccc5c4)ccc3ncc21 + O=C(O)c1ccc(-c2c[nH]c3ncc(-c4ccccc4)cc23)cc1C1CCCC1 [GSK650394] (first compound 0.02 µM, partner dose 0.8 µM) | 69.7 | 48.8 | 78.8
26 | COc1ccc(C2=N[C@@H](c3ccc(Cl)cc3)[C@@H](c3ccc(Cl)cc3)N2C(=O)N2CCNC(=O)C2)c(OC(C)C)c1 [Nutlin-3] + C=CCn1c(=O)c2cnc(Nc3ccc(N4CCN(C)CC4)cc3)nc2n1-c1cccc(C(C)(C)O)n1 [MK1775] (first compound 0.5 µM, partner dose 0.1 µM) | 59.8 | 75.4 | 70
27 | Cc1cn(-c2cc(NC(=O)c3ccc(C)c(Nc4nccc(-c5cccnc5)n4)c3)cc(C(F)(F)F)c2)cn1 [nilotinib] + C#Cc1cccc(Nc2ncnc3cc(OCCOC)c(OCCOC)cc23)c1 [erlotinib] (first compound 1 µM, partner dose 4 µM) | 65.6 | 97.4 | 137
